Source: the supplement of paper PMC12578646, “Prodrug florfenicol amine is activated by intrinsic resistance to target Mycobacterium abscessus” (Nature Microbiology, 2025)
M. abscessus ATCC 19977 and its deletion, point and complemented mutants after 5 days of drug at 37 °C plus 24 h of resazurin. Growth in % of untreated wells at the dose given (lower = more inhibition); checkerboards give % inhibition (higher = more inhibition); IC50 from the fitted curve (lower = more potent). No active / inactive call. IC50 values come from the same 384-well curves. Growth is not capped and can exceed 100%. The direction of the checkerboard scale is read from the raw signals. Capreomycin is a mixture.

Assays:
[1] = system: Mycobacterium abscessus ATCC 19977 Eis2 E120fs; experiment: growth relative to untreated wells; higher = more growth (less inhibition)
Protocol: (§1)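 384-well two-fold dose series, two replicates; 5 days at 37 °C, then 24 h with resazurin; fluorescence scaled to growth and killed controls.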

[2] = system: Mycobacterium abscessus ATCC 19977 Eis2 T258R; experiment: as above
Protocol: as §1

[3] = system: Mycobacterium abscessus ATCC 19977 Eis2 Y227D; experiment: as above
Protocol: as §1

[4] = system: Mycobacterium abscessus ATCC 19977 Eis2 Y255*; experiment: as above
Protocol: as §1

[5] = system: Mycobacterium abscessus ATCC 19977 Eis2 Y284*; experiment: as above
Protocol: as §1

[6] = system: Mycobacterium abscessus ATCC 19977 WhiB7 A51T; experiment: as above
Protocol: as §1

[7] = system: Mycobacterium abscessus ATCC 19977 WhiB7 F24fs; experiment: as above
Protocol: as §1

[8] = system: Mycobacterium abscessus ATCC 19977 WhiB7 L37P; experiment: as above
Protocol: as §1

[9] = system: Mycobacterium abscessus ATCC 19977 WhiB7 R76del; experiment: as above
Protocol: as §1

[10] = system: Mycobacterium abscessus ATCC 19977 WhiB7 T70fs; experiment: as above
Protocol: as §1

[11] = system: Mycobacterium abscessus ATCC 19977 Δeis2; experiment: as above
Protocol: as §1

[12] = system: Mycobacterium abscessus ATCC 19977 ΔwhiB7; experiment: as above
Protocol: as §1

[13] = system: Mycobacterium abscessus ATCC 19977 Δcat; experiment: growth relative to untreated wells; higher = more growth
Protocol: (§2)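 Two-fold dose series, three replicates; 5 days at 37 °C, then 24 h with resazurin; fluorescence scaled to growth and killed controls.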

[14] = system: Mycobacterium abscessus ATCC 19977 ΔwhiB7; experiment: as above
Protocol: as §2

[15] = system: Mycobacterium abscessus ATCC 19977; experiment: as above
Protocol: as §2

CC[C@H]1OC(=O)[C@H](C)[C@@H](O[C@H]2C[C@@](C)(OC)[C@@H](O)[C@H](C)O2)[C@H](C)[C@@H](O[C@@H]2O[C@H](C)C[C@H](N(C)C)[C@H]2O)[C@](C)(O)C[C@@H](C)C(=O)[C@H](C)[C@@H](O)[C@]1(C)O [erythromycin]
Settings	growth [%]
[1], 0.03125 µg/mL	98.9
[1], 0.0625 µg/mL	111
[1], 0.125 µg/mL	120.3
[1], 0.25 µg/mL	122
[1], 0.5 µg/mL	125
[1], 1 µg/mL	82.2
[1], 2 µg/mL	34.5
[1], 4 µg/mL	4.05
[1], 8 µg/mL	0.0559
[1], 16 µg/mL	-0.41
[1], 32 µg/mL	-2.06
[1], 64 µg/mL	-1.13
[2], 0.03125 µg/mL	91.3
[2], 0.0625 µg/mL	109
[2], 0.125 µg/mL	111
[2], 0.25 µg/mL	108
[2], 0.5 µg/mL	90.08
[2], 1 µg/mL	32.7
[2], 2 µg/mL	10.1
[2], 4 µg/mL	-0.187
[2], 8 µg/mL	-0.918
[2], 16 µg/mL	-2.636
[2], 32 µg/mL	-2.55
[2], 64 µg/mL	-1.81
[3], 0.03125 µg/mL	103
[3], 0.0625 µg/mL	112.6
[3], 0.125 µg/mL	115
[3], 0.25 µg/mL	119
[3], 0.5 µg/mL	119
[3], 1 µg/mL	71.4
[3], 2 µg/mL	30.9
[3], 4 µg/mL	5.19
[3], 8 µg/mL	1.84
[3], 16 µg/mL	0.105
[3], 32 µg/mL	-0.668
[3], 64 µg/mL	0.668
[4], 0.03125 µg/mL	102
[4], 0.0625 µg/mL	107
[4], 0.125 µg/mL	117
[4], 0.25 µg/mL	118.9
[4], 0.5 µg/mL	107.8
[4], 1 µg/mL	56.6
[4], 2 µg/mL	19.1
[4], 4 µg/mL	1.41
[4], 8 µg/mL	-1.45
[4], 16 µg/mL	-3.08
[4], 32 µg/mL	-3.73
[4], 64 µg/mL	-2.9
[5], 0.03125 µg/mL	105
[5], 0.0625 µg/mL	105
[5], 0.125 µg/mL	113
[5], 0.25 µg/mL	119.2
[5], 0.5 µg/mL	106
[5], 1 µg/mL	71.6
[5], 2 µg/mL	21.6
[5], 4 µg/mL	4.53
[5], 8 µg/mL	-0.0215
[5], 16 µg/mL	-1.25
[5], 32 µg/mL	-1.87
[5], 64 µg/mL	-1.52
[6], 0.03125 µg/mL	106
[6], 0.0625 µg/mL	121
[6], 0.125 µg/mL	117.1
[6], 0.25 µg/mL	118.77
[6], 0.5 µg/mL	111
[6], 1 µg/mL	23.6
[6], 2 µg/mL	2.97
[6], 4 µg/mL	-3.02
[6], 8 µg/mL	-4.25
[6], 16 µg/mL	-3.01
[6], 32 µg/mL	-2.53
[6], 64 µg/mL	-1.76
[7], 0.03125 µg/mL	105
[7], 0.0625 µg/mL	109
[7], 0.125 µg/mL	114
[7], 0.25 µg/mL	104
[7], 0.5 µg/mL	75.9
[7], 1 µg/mL	11
[7], 2 µg/mL	-1.03
[7], 4 µg/mL	-3.1
[7], 8 µg/mL	-3.14
[7], 16 µg/mL	-3.04
[7], 32 µg/mL	-2.72
[7], 64 µg/mL	-1.36
[8], 0.03125 µg/mL	108.2
[8], 0.0625 µg/mL	107
[8], 0.125 µg/mL	114
[8], 0.25 µg/mL	116
[8], 0.5 µg/mL	87.8
[8], 1 µg/mL	16.2
[8], 2 µg/mL	0.179
[8], 4 µg/mL	-2.18
[8], 8 µg/mL	-3.35
[8], 16 µg/mL	-2.85
[8], 32 µg/mL	-2.67
[8], 64 µg/mL	-1.76
[9], 0.03125 µg/mL	103
[9], 0.0625 µg/mL	112.5
[9], 0.125 µg/mL	115
[9], 0.25 µg/mL	110
[9], 0.5 µg/mL	73.9
[9], 1 µg/mL	6.82
[9], 2 µg/mL	-1.06
[9], 4 µg/mL	-2.74
[9], 8 µg/mL	-3.21
[9], 16 µg/mL	-2.31
[9], 32 µg/mL	-2.56
[9], 64 µg/mL	-1.48
[10], 0.03125 µg/mL	102
[10], 0.0625 µg/mL	104
[10], 0.125 µg/mL	108
[10], 0.25 µg/mL	92.8
[10], 0.5 µg/mL	62.3
[10], 1 µg/mL	5.36
[10], 2 µg/mL	-2.67
[10], 4 µg/mL	-5.17
[10], 8 µg/mL	-5.93
[10], 16 µg/mL	-4.77
[10], 32 µg/mL	-4.21
[10], 64 µg/mL	-2.99
[11], 0.03125 µg/mL	104
[11], 0.0625 µg/mL	104
[11], 0.125 µg/mL	115
[11], 0.25 µg/mL	93.4
[11], 0.5 µg/mL	84.1
[11], 1 µg/mL	15.8
[11], 2 µg/mL	8.58
[11], 4 µg/mL	-2.86
[11], 8 µg/mL	-3.31
[11], 16 µg/mL	-3.55
[11], 32 µg/mL	-3.23
[11], 64 µg/mL	-2.15
[12], 0.03125 µg/mL	97.4
[12], 0.0625 µg/mL	111
[12], 0.125 µg/mL	112
[12], 0.25 µg/mL	114
[12], 0.5 µg/mL	85
[12], 1 µg/mL	7.71
[12], 2 µg/mL	-2.73
[12], 4 µg/mL	-1.9
[12], 8 µg/mL	-5.83
[12], 16 µg/mL	-4.97
[12], 32 µg/mL	-4.65
[12], 64 µg/mL	-4.28

CS(=O)(=O)c1ccc([C@@H](O)[C@H](N)CO)cc1 [thiamphenicol amine]
growth [%]
Settings	1 µg/mL	2 µg/mL	4 µg/mL	8 µg/mL	16 µg/mL	32 µg/mL	64 µg/mL	128 µg/mL	256 µg/mL	512 µg/mL
[13]	88.5	97.7	81.9	65.4	53.7	37.4	18	-1.25	-2.68	-0.742
[14]	89	88.7	92.1	83.2	90.71	97.6	107	102	94.1	2.08
[15]	97.7	92.2	96.7	88.9	94.6	88.3	89.8	82.4	74.3	31.4
